# PubChem BioAssay AID904 (National Center for Advancing Translational Sciences (NCATS), 2007)
# Among all 55,000 compounds or so, about 530 (0.96%) were called active. The inconclusive results got no clear call from the source; some entries with a clear call stand among them for comparison. Calls follow the shape of the dose curve; as a rule, active = well fitted cell-killing curve with a large enough effect; inconclusive = small, poorly fitted or top-dose-only effect; inactive = no such curve, though single readings can be large or run the other way. Where the call is inconclusive, the potency comes from a doubtful curve fit.
# Test: qHTS Screen for Compounds that Selectively Target Cancer Cells with p53 Mutations: Cytotoxicity of p53 Null Cells at the Nonpermissive Temperature; also: nearly all actives have a fitted effect of over 50% in size;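 as to activity, negative = cell killing: 0% = DMSO only and -100% = full killing by 100 µM tamoxifen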
# Settings: H1299 p53-null (neo) cells, 39C, ATPlite viability, 24 h; activity, negative = cell killing: at 46.1 µM (top of the series)
# Summary of the method: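 Cells seeded at 600/well, 37C overnight. Compound added (up to 46 uM), plates shifted to 39C for 24 hr. ATPlite added, luminescence read after 20 min at room temperature.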
# Potency is read from the fitted curve at half-maximal effect; tags tell the direction and shape of the fitted curve.
Compound,Potency,"activity, negative = cell killing"
CCOc1ccc(C(=O)Nc2ccc3c(c2)N(C(C)=O)CCC3)cc1OCC,"inconclusive: 0.1 µM [cytotoxic, full curve]",
COCCn1c(=NC(=O)c2ccc3c(c2)OCCO3)sc2cc(NC(C)=O)ccc21,"inconclusive: 3.98 µM [cytotoxic, full curve]",
Cc1ccc(C(=O)/C=C/c2cn(CC(O)CN3CCCCCC3)c3ccccc23)cc1 (configuration not stated),"inconclusive: 12.6 µM [cytotoxic, partial curve]",
CCCOc1ccc(-c2cccc(NS(=O)(=O)c3ccc(CC)cc3)c2)nn1,"inconclusive: 0.282 µM [cytotoxic, full curve]",
CC(C)c1ccc(NC(=O)c2ccc(F)c(S(=O)(=O)N3CCN(c4ccccc4F)CC3)c2)cc1,inactive,
COc1ccc(C(=O)N2CCN(C(=O)COc3ccc(C)cc3)CC2)cc1OC,"inconclusive: 31.6 µM [cytotoxic, single point]",
COc1ccc(OCC(=O)Nc2nc(-c3ccc(Br)cc3)ns2)cc1,"inconclusive: 35.5 µM [cytotoxic, single point]",
Cc1cc(Cl)ccc1NC(=O)CN1C(=O)COc2ccc(S(=O)(=O)N3CCC(C)CC3)cc21,"inconclusive: 20 µM [cytotoxic, single point]",
Cc1ccc(C2c3c(-c4ccccc4O)n[nH]c3C(=O)N2CCc2ccccc2)cc1 (configuration not stated),"inconclusive: 35.5 µM [cytotoxic, single point]",
CC1(C)C(c2ccco2)=[N+]([O-])C2(CCCCC2=O)N1O (configuration not stated),inactive,
O=C(c1ccc([N+](=O)[O-])s1)N1CCN(c2ccccc2)CC1,"inconclusive: 20 µM [cytotoxic, partial curve]",
CCOC(=O)c1cc(S(=O)(=O)N2CCN(c3cccc(OC)c3)CC2)[nH]n1,"inconclusive: 0.316 µM [cytotoxic, full curve, poor fit]",
O=C(NCc1ccc(Cl)cc1)c1ccc2oc(=O)n(Cc3ccccc3)c2c1,"inconclusive: 4.47 µM [cytotoxic, partial curve, poor fit]",
CCOc1ccc(C2=C(C(=O)CC)Sc3nncn3N2C(=O)CC)cc1,"inconclusive: 22.4 µM [cytotoxic, single point]",
Cc1ccc(CSc2nc3ccncc3n2Cc2nc(-c3ccc(Cl)cc3)oc2C)cc1,"inconclusive: 10 µM [cytotoxic, partial curve]",
CCOc1ccc(S(=O)(=O)N(C(C)=O)c2ccc3oc(C)c(C(=O)OC)c3c2)cc1,"inconclusive: 4.47 µM [cytotoxic, partial curve]",
Cc1ccc(-c2nc3sc(CCNC(=O)c4ccco4)c(C)n3n2)cc1,"inconclusive: 7.94 µM [cytotoxic, partial curve]",
Cc1ccccc1-c1nnc(SCC(=O)N2CCCc3ccccc32)o1,"inconclusive: 0.0794 µM [cytotoxic, full curve, poor fit]",
Cc1cc2nc(-c3cccc(NC(=O)COc4ccc(C(C)C)cc4)c3)oc2cc1C,"inconclusive: 0.398 µM [cytotoxic, full curve, poor fit]",
COc1ccc(N2CCN(C(=O)c3c(C)oc4nc(C)nc(N5CCCC5)c34)CC2)cc1,"inconclusive: 0.0126 µM [cytotoxic, full curve]",
Cc1ccc(C)c2sc(N3CCN(C(=O)c4ccco4)CC3)nc12,inactive,

Compound,Potency,"activity, negative = cell killing"
CCN(CC)S(=O)(=O)c1ccc(NC(=O)[C@H](CCSC)N2Cc3ccccc3C2=O)cc1,"inconclusive: 20 µM [cytotoxic, single point]",
COc1ccccc1NC(=O)CSc1nnc(NC(=O)Nc2ccc(C)cc2)s1,"inconclusive: 1.12 µM [cytotoxic, partial curve]",
CCCCN1C(=O)c2[nH]nc(-c3ccccc3O)c2C1c1ccc(OCc2ccccc2)cc1 (configuration not stated),inactive,
CC(=O)c1ccc(N2CCN(C(=O)CCC(=O)Nc3ccc4nc(N5CCCCC5)cc(C)c4c3)CC2)cc1,"inconclusive: 6.31 µM [cytotoxic, partial curve]",
CN(c1ccc(F)cc1)S(=O)(=O)N1CCCC(C(=O)NCc2cccc(Br)c2)C1 (configuration not stated),"inconclusive: 31.6 µM [cytotoxic, single point]",
Cc1ccc(CCNC(=O)c2ccc3c(c2)nc2n3CCCCC2)cc1,"inconclusive: 35.5 µM [cytotoxic, single point]",
CC(C)c1ccc(NC(=O)CSc2nc(=O)n(Cc3ccccn3)c3c2CCC3)cc1,"inconclusive: 31.6 µM [cytotoxic, single point]",
N#Cc1nc(COc2cccc(Cl)c2)oc1NCCc1ccccc1,"inconclusive: 35.5 µM [cytotoxic, single point]",
O=C(CCS(=O)(=O)c1nc(-c2cccs2)cc(C(F)(F)F)n1)Nc1cc(Br)ccc1O,"inconclusive: 31.6 µM [cytotoxic, single point]",
Cc1ccc(-c2nn3c(=O)cc(CN4CCN(C(=O)/C=C/c5ccccc5)CC4)nc3s2)cc1,"inconclusive: 0.0126 µM [cytotoxic, full curve, poor fit]",
O=C(NCc1cccnc1)C(=O)NCC(c1cccnc1)N1CCN(c2ccc(F)cc2)CC1 (configuration not stated),inactive,
CCN1C(C(=O)c2ccccc2)=C(OC(=O)COc2ccc(OC)cc2)c2ccccc2S1(=O)=O,"inconclusive: 0.0251 µM [cytotoxic, full curve]",
O=C(Nc1cccc(C(F)(F)F)c1)c1cc(S(=O)(=O)N2CCCC2)c[nH]1,"inconclusive: 20 µM [cytotoxic, single point]",
CC(C)COC(=O)Cn1nnc2sc(-c3ccccc3)cc2c1=O,"inconclusive: 1.58 µM [cytotoxic, partial curve]",
CC1CCN(C(=O)CSc2nnc(-c3ccccc3)o2)CC1,inactive,
CN(C(=O)CSc1nc(C2CCCC2)nc2c1c(=O)n(C)c(=O)n2C)c1ccccc1,"inconclusive: 1.26 µM [cytotoxic, single point]",
Cc1ccc(-n2ncc(C(=O)NCCN3CCCC3)c2C2CCN(C(=O)OC(C)(C)C)CC2)cc1,inactive,
CCc1ccccc1NC(=O)Nc1cc(C(=O)NCc2cccc(F)c2)ccc1N1CCCC1,"inconclusive: 0.0089 µM [cytotoxic, full curve, poor fit]",
Cc1ccccc1-c1nc(CS(=O)(=O)CC(=O)NCCc2ccccc2)c(C)o1,inactive,
COc1ccc(N(CC(C)C)S(=O)(=O)c2nnc(NC(=O)c3cccs3)s2)cc1,"inconclusive: 12.6 µM [cytotoxic, single point]",
CCOC(=O)CCn1cnc2onc(-c3cc(OC)ccc3Cl)c2c1=O,inactive,

Compound,Potency,"activity, negative = cell killing"
Cc1nc2sccn2c(=O)c1S(=O)(=O)Nc1ccc(N2CCOCC2)cc1,"inconclusive: 5.01 µM [cytotoxic, full curve, poor fit]",
O=C(Nc1ccccc1C(F)(F)F)c1cc(-c2ccc3c(c2)OCCO3)on1,"inconclusive: 12.6 µM [cytotoxic, partial curve]",
O=C(OCC#CCSc1nc2ccccc2o1)c1cc2ccccc2o1,inactive,
O=C(Nc1ccccc1)N(Cc1c[nH]c2ccccc12)C1CCCCCC1,inactive,
CCOc1ccccc1NC(=O)CSc1nc2c(sc3ccccc32)c(=O)n1CCCC(=O)NC1CCCC1,,inconclusive: -35.3% [cytotoxic]
Cc1cccc(NC(=O)Cn2ncc3c4ccccc4n(Cc4ccccc4)c3c2=O)c1C,inactive,
Cc1ccc(S(=O)(=O)CCC(=O)Nc2ccc(OC(F)(F)F)cc2)cc1,"inconclusive: 0.0126 µM [cytotoxic, full curve]",
COc1ccc(C(=O)N2CCC(c3nc4ccccc4s3)CC2)cc1Cl,"inconclusive: 31.6 µM [cytotoxic, single point]",
COc1ccccc1NC(=O)CSc1nnc(NC(=O)NC2CCCCC2)s1,"inconclusive: 2 µM [cytotoxic, full curve, poor fit]",
COc1ccc(-n2nc(C(=O)N3CCN(c4cccc(C)c4)C(C)C3)c3c4ccccc4n(C)c3c2=O)cc1 (configuration not stated),"inconclusive: 3.16 µM [cytotoxic, single point]",
COc1ccccc1NC(=O)C1=C(C)Nc2ncnn2C1c1ccccn1 (configuration not stated),"inconclusive: 0.199 µM [cytotoxic, full curve, poor fit]",
O=C(Cn1nc(C(F)(F)F)c2c1CCCC2)Nc1ccc(Cl)cc1,"inconclusive: 22.4 µM [cytotoxic, single point]",
O=C(Nc1ccc(Cl)cc1)C1CCN(S(=O)(=O)c2ccc(Br)s2)CC1,"inconclusive: 0.316 µM [cytotoxic, partial curve, poor fit]",
CC(CNC(=O)CN1C(=O)COc2ccc(S(=O)(=O)N3CCCCC3)cc21)c1ccccc1 (configuration not stated),"inconclusive: 0.794 µM [cytotoxic, partial curve]",
CCC(C)c1ccc(OCC(=O)Nc2ccc(-c3nc4ncccc4o3)cc2)cc1 (configuration not stated),"inconclusive: 7.94 µM [cytotoxic, partial curve, poor fit]",
CC(Sc1nc2ccccc2n1C)C(=O)NC(c1ccccc1)c1ccccc1 (configuration not stated),inactive,
CCCN1CCN(CCCNC(=O)c2c(C)nn(-c3ccc(F)cc3)c2-n2cccc2)CC1,inactive,
COCCCNC(=O)c1ccc2nc(CCc3ccccc3)oc2c1,"inconclusive: 7.94 µM [cytotoxic, partial curve, poor fit]",
CN(C)CCNC(=O)c1ccc2c(c1)N(Cc1c(F)cccc1Cl)C(=O)c1ccccc1S2,"inconclusive: 3.16 µM [cytotoxic, full curve]",
Cc1ccn2cc(-c3ccc(C)c(NS(=O)(=O)c4ccc(Cl)cc4)c3)nc2c1,"inconclusive: 12.6 µM [cytotoxic, single point]",
